# Target: Mammalian PARP, isolated from Hela cell nuclear extract (Homo sapiens, UniProt P09874)
# Test: PARP inhibition assay (FlashPlate, 3H-NAD) to determine IC50
# Type: biochemical
# Conditions: PARP enzyme activity, NAD 5 μM, 30 mer ds DNA-oligos, 30° C., 45 minutes, compound 10 to 0.01 μM
# Experimental: In order to assess the inhibitory action of the compounds, the following assay was used to determine IC50 values.
# The total assay volume per well was 40 μl.
# After 10 minutes incubation at 30° C. the reactions were initiated by the addition of a 10 μl reaction mixture, containing NAD (5 μM), ^3H-NAD and 30 mer double stranded DNA-oligos. Designated positive and negative reaction wells were done in combination with compound wells (unknowns) in order to calculate % enzyme activities. The plates were then shaken for 2 minutes and incubated at 30° C. for 45 minutes.
# Following the incubation, the reactions were quenched by the addition of 50 μl 30% acetic acid to each well. The plates were then shaken for 1 hour at room temperature.
# The plates were transferred to a TopCount NXT (TRADE MARK) (Packard, UK) for scintillation counting. Values recorded are counts per minute (cpm) following a 30 second counting of each well.
# The % enzyme activity for each compound is then calculated using the following equation: […]
# Such IC50 values are used as comparative values to identify increased compound potencies.
row,Structure (SMILES),IC50
1,O=c1[nH]nc(CSc2ccc(Cl)cc2)c2ccccc12 [Compound 90],900 nM
2,O=c1[nH]nc(CSc2ccccn2)c2ccccc12 [Compound 91],3300 nM
3,Cn1ccnc1SCc1n[nH]c(=O)c2ccccc12 [Compound 92],1300 nM
4,COC(=O)CSCc1n[nH]c(=O)c2ccccc12 [Compound 93],2100 nM
5,O=c1[nH]nc(Cc2ccc(Cl)cc2)c2ccccc12 [Compound 126],1800 nM
6,O=c1[nH]nc(Cc2ccc(Br)cc2)c2ccccc12 [Compound 129],1600 nM
7,O=c1[nH]nc(Cc2cccc3ccccc23)c2ccccc12 [Compound 131],4400 nM
8,O=c1[nH]nc(Cc2ccc(F)cc2)c2ccccc12 [Compound 132],700 nM
9,COc1ccc(Cc2n[nH]c(=O)c3ccccc23)cc1 [Compound 138],1200 nM
10,Cc1ccc(Cc2n[nH]c(=O)c3ccccc23)cc1 [Compound 139],1700 nM
11,O=c1[nH]nc(Cc2ccccc2F)c2ccccc12 [Compound 141],1400 nM
12,O=c1[nH]nc(Cc2ccccc2)c2ccccc12 [Compound 145],800 nM
13,O=c1[nH]nc(Cc2ccc(I)cc2)c2ccccc12 [Compound 151],1800 nM
14,Nc1ccc(Cc2n[nH]c(=O)c3ccccc23)cc1 [Compound 159],3500 nM
15,Nc1cccc(Cc2n[nH]c(=O)c3ccccc23)c1 [Compound 160],1300 nM
16,Cc1ccccc1Cc1n[nH]c(=O)c2ccccc12 [Compound 163],1800 nM
17,O=c1[nH]nc(Cc2ccc(O)cc2)c2ccccc12 [Compound 164],1800 nM
18,O=c1[nH]nc(Cc2cccc(O)c2)c2ccccc12 [Compound 165],300 nM
19,CC(=O)Nc1ccc(Cc2n[nH]c(=O)c3ccccc23)cc1 [Compound 166],4100 nM
20,O=C(Nc1ccc(Cc2n[nH]c(=O)c3ccccc23)cc1)c1ccccc1 [Compound 167],1600 nM
21,O=C(Nc1cccc(Cc2n[nH]c(=O)c3ccccc23)c1)c1cccs1 [Compound 169],600 nM
22,O=C(Nc1cccc(Cc2n[nH]c(=O)c3ccccc23)c1)c1ccc(F)cc1 [Compound 170],400 nM
23,O=C(Nc1cccc(Cc2n[nH]c(=O)c3ccccc23)c1)c1ccccc1 [Compound 171],600 nM
24,O=c1[nH]nc(Cc2ccncc2)c2ccccc12 [Compound 177],800 nM
25,O=C(Nc1ccccc1)Nc1cccc(Cc2n[nH]c(=O)c3ccccc23)c1 [Compound 215],4000 nM
26,O=C(Nc1ccc(F)cc1)Nc1cccc(Cc2n[nH]c(=O)c3ccccc23)c1 [Compound 216],300 nM

# Other lines, results leading:
row,IC50,Structure (SMILES)
1,200 nM,O=c1[nH]nc(Cc2cccnc2)c2ccccc12 [Compound 178]
2,40 nM,CC(=O)Oc1cccc(Cc2n[nH]c(=O)c3ccccc23)c1 [Compound 179]
3,1300 nM,O=c1[nH]nc(Cc2ccc3c(c2)OCO3)c2ccccc12 [Compound 180]
4,1100 nM,O=c1[nH]nc(Cc2cccc(Cl)c2)c2ccccc12 [Compound 186]
5,1300 nM,O=c1[nH]nc(Cc2cccc(C(F)(F)F)c2)c2ccccc12 [Compound 191]
6,1400 nM,O=c1[nH]nc(Cc2cccc(F)c2)c2ccccc12 [Compound 192]
7,1000 nM,O=c1[nH]nc(Cc2cccc(Oc3ccccc3)c2)c2ccccc12 [Compound 193]
8,1400 nM,O=c1[nH]nc(Cc2cccc(OCc3ccccc3)c2)c2ccccc12 [Compound 194]
9,3800 nM,Nc1cc(Cc2n[nH]c(=O)c3ccccc23)ccc1N1CCSCC1 [Compound 198]
10,70 nM,O=c1[nH]nc(Cc2ccc(F)c(F)c2)c2ccccc12 [Compound 202]
11,700 nM,O=c1[nH]nc(Cc2ccc(N3CCCC3)c([N+](=O)[O-])c2)c2ccccc12 [Compound 204]
12,1200 nM,O=C(O)COCC(=O)Nc1cc(Cc2n[nH]c(=O)c3ccccc23)ccc1N1CCOCC1 [Compound 206]
13,400 nM,O=c1[nH]nc(Cc2cccc(Br)c2)c2ccccc12 [Compound 211]
14,900 nM,O=C(Oc1cccc(Cc2n[nH]c(=O)c3ccccc23)c1)c1ccc(F)cc1 [Compound 212]
15,4400 nM,CC(=O)Oc1ccc(Cc2n[nH]c(=O)c3ccccc23)cc1 [Compound 213]
16,2200 nM,COc1cc(Cc2n[nH]c(=O)c3ccccc23)ccc1OCc1ccccc1 [Compound 222]
17,400 nM,O=C(Nc1ccc(Cc2n[nH]c(=O)c3ccccc23)cc1)c1ccc(F)cc1 [Compound 227]
18,600 nM,COc1cc(Cc2n[nH]c(=O)c3ccccc23)ccc1O [Compound 239]
19,900 nM,COc1cc(Cc2n[nH]c(=O)c3ccccc23)ccc1F [Compound 241]
20,500 nM,O=c1[nH]nc(Cc2ccc(F)c(O)c2)c2ccccc12 [Compound 247]
21,1000 nM,O=c1[nH]nc(Cc2ccccc2F)c2ccccc12 [Compound 248]
22,700 nM,O=c1[nH]nc(Cc2ccccn2)c2ccccc12 [Compound 249]
23,≤ 3000 nM,O=C(Nc1cc(Cc2n[nH]c(=O)c3ccccc23)ccc1N1CCOCC1)c1cccc(CN2CCOCC2)c1 [Compound 253]
24,≤ 3000 nM,O=C(Nc1cc(Cc2n[nH]c(=O)c3ccccc23)ccc1N1CCOCC1)c1cccc(CN2CCCC2)c1 [Compound 254]
25,≤ 3000 nM,"O=C(CCCCl)Nc1cc(Cc2n[nH]c(=O)c3ccccc23)ccc1N1CCOCC1 [Compound 265, 4-chloro-N-[2-morpholino-5-(1-oxophthalazin-4-ylmethyl)phenyl]butyramide]"
26,2500 nM,O=C(O)c1cccc(Cc2n[nH]c(=O)c3ccccc23)c1 [Compound 276]
27,600 nM,COC(=O)c1cccc(Cc2n[nH]c(=O)c3ccccc23)c1 [Compound 277]
